# Data from PubChem BioAssay AID485360 (National Center for Advancing Translational Sciences (NCATS), 2010).
# In all, about 230,000 compounds went through this assay and about 1,500 (0.65%) were called active. Inconclusive means that the source gave no clear call. Such entries were picked first, then a sample of the others. Calls come from the whole dose curve; as a rule, active = well fitted inhibition curve with a large enough effect; inconclusive = small, poorly fitted or top-dose-only effect; inactive = no such curve, though single readings can be large or run the other way. Potencies beside an inconclusive call are fits to weak or partial responses and may not hold up.
# Target: Lethal(3)malignant brain tumor-like protein 1 (Homo sapiens) (UniProt Q9Y468)
# UniProt Q9Y468, sequence (Q9Y468 whole entry, looked up): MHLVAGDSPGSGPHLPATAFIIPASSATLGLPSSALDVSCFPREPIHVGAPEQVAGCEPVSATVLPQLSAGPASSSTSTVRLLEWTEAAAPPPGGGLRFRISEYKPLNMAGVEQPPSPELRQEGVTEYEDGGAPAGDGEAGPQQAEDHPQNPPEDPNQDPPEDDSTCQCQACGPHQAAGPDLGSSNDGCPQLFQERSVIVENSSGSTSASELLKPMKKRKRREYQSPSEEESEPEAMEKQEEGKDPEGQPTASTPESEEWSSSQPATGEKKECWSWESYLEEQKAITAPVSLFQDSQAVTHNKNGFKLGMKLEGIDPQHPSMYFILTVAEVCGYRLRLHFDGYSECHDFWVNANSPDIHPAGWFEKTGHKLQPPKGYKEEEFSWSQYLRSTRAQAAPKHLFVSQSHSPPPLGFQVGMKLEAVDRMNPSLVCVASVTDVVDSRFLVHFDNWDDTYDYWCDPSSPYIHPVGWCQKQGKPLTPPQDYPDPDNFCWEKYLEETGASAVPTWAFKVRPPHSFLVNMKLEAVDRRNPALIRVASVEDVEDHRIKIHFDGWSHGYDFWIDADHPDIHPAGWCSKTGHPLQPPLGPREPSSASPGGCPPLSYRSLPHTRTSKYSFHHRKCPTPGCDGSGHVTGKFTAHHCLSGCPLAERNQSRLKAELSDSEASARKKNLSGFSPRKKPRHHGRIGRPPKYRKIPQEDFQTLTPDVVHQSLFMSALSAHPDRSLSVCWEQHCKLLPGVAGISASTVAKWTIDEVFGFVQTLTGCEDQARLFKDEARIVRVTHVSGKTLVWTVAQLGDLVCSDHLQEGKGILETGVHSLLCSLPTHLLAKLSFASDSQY
# Assay: qHTS Assay for the Inhibitors of L3MBTL1; note: nearly all actives have a fitted effect of over 60% in size
# Conditions: AlphaScreen L3MBTL1–H3K9me1 peptide binding; activity, negative = inhibition: at 57.1 µM (top of the series)
# Procedure, shortened: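 Displacement of a biotinylated histone H3(1-15) peptide monomethylated at Lys9 (75 nM) from L3MBTL1 (50 nM) was measured by AlphaScreen after a 30 min room-temperature compound incubation; cefsulodin titration served as intraplate control.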
# % is set by controls: 0 for no effect and ±100 for the full control effect; potency is the fitted concentration of half-maximal effect; tags give direction and shape of the fitted curve.
Structure (SMILES),Potency,"activity, negative = inhibition"
COc1cccc(OC)c1OCCNC(C)(C)C,inactive,
Cc1ccc[n+](-c2[nH]c(=O)sc2/C=N/NC(=O)c2ccccc2[O-])c1,"inconclusive: 0.794 µM [inhibitor, single point]",
CCN(CC)c1ccc(C2C3CCCCC3(O)CCN2C(=O)c2cccs2)cc1 (centres undefined),"inconclusive: 31.6 µM [inhibitor, single point]",
O=C(OCc1cc(=O)n2c(n1)sc1ccccc12)c1cccc(O)c1,"inconclusive: 31.6 µM [inhibitor, single point]",
Cc1ccc(-c2[nH]c3ccccc3c2SCCN)cc1,"inconclusive: 39.8 µM [inhibitor, partial curve]",
COc1cc(/C=C2\SC(=O)N(c3ccc(Cl)cc3)C2=O)cc([N+](=O)[O-])c1O,"inconclusive: 2.82 µM [inhibitor, full curve, poor fit]",
CN1Cc2sc(NC(=S)NC(=O)c3ccccc3)c(C#N)c2CC1(C)C,"inconclusive: 31.6 µM [inhibitor, single point]",
CC1CCCN(C(=S)SCC(=O)O)C1 (centres undefined),inactive,
COc1ccc(Br)cc1/C=N/N1CCN(Cc2ccccc2)CC1,"inconclusive: 22.4 µM [inhibitor, partial curve]",
O=C(COC(=O)CSc1cccc2cccc(Cl)c12)Nc1ncc(C(F)(F)F)cc1Cl,"inconclusive: 39.8 µM [inhibitor, single point]",
O=C(COC(=O)CCC(=O)c1cccs1)NCc1ccc(Cl)cc1,"inconclusive: 0.794 µM [inhibitor, full curve, poor fit]",
COc1cccc(N=Nc2c(C)[nH]n(-c3ccccc3)c2=O)c1,"inconclusive: 3.16 µM [inhibitor, full curve]",
Cc1ccc(S(=O)(=O)N2N=C3CCCCC3C2(O)C(F)(F)F)cc1 (centres undefined),inactive,
Cc1ccc(-n2nnnc2SCC(=O)N(CC(C)C)c2c(N)n(CC(C)C)c(=O)[nH]c2=O)cc1,inactive,
COc1ccc(Cl)cc1Nc1nc(N)c2ccccc2n1,inactive,
Cc1ccc(-n2nnnc2SCC(=O)NNC(=O)c2ccc([N+](=O)[O-])cc2)cc1,inactive,
O=C(CCCCN1CCCCC1)c1ccc2c(c1)Cc1ccccc1-2,"inconclusive: 0.251 µM [inhibitor, full curve, poor fit]",
Cc1cc(C)c(C#N)c(N2CCOCC2)n1,inactive,
COc1ccc(C(C2C(=O)CC(C)(C)CC2=O)C2C(=O)CC(C)(C)CC2=O)cc1COCC(F)(F)F,inactive,
CCCN(CCC)C(=O)C1CCN(c2cc(C)nc3c(-c4ccc(OC)c(OC)c4)c(C)nn23)CC1,"inconclusive: 6.31 µM [inhibitor, single point]",
Cc1[nH]c(C(=O)N/N=C/c2ccc(N(C)C)cc2)c(C)c1C(=O)N/N=C/c1ccc(N(C)C)cc1,"inconclusive: 20 µM [inhibitor, partial curve]",
Cc1ccc(NC(=O)COc2cccnc2[N+](=O)[O-])cc1S(=O)(=O)N1CCCCC1,"inconclusive: 28.2 µM [inhibitor, single point]",

Structure (SMILES),Potency,"activity, negative = inhibition"
Cc1c(NC(=O)Nc2ccccc2Cl)c(=O)n(-c2ccccc2)n1C,"inconclusive: 8.91 µM [inhibitor, single point]",
c1ccc(CCSc2nccn2-c2ccccc2)cc1,"inconclusive: 28.2 µM [inhibitor, partial curve]",
O=[N+]([O-])c1ccc(O)c(CN2CCCCCC2)c1,,inactive: -6.02% [at 2.29 µM]
COc1ccc(NCc2ccccc2[N+](=O)[O-])cc1OC,"inconclusive: 39.8 µM [inhibitor, single point]",
CCCOC(=O)c1c(NC(=O)/C=C/c2cnn(C)c2C)sc(C(=O)OCC)c1C,"inconclusive: 3.16 µM [inhibitor, partial curve]",
Cn1cccc1/C=N/n1c(-c2ccc(Cl)cc2)n[nH]c1=S,"inconclusive: 3.98 µM [inhibitor, single point]",
O=C(CN1CCN(c2ccccn2)CC1)N(c1ccccc1)c1ccc2ccccc2c1,"inconclusive: 31.6 µM [inhibitor, single point]",
Oc1ccc(NCc2ccccc2OCc2ccccc2)cc1,"inconclusive: 31.6 µM [inhibitor, single point]",
O=C(COC(=O)c1cc(S(=O)(=O)N2CCOCC2)ccc1O)NCC1CCCO1 (centres undefined),"inconclusive: 0.631 µM [inhibitor, single point]",
CCOC(=O)C1=C(SCC)c2cc3c(n2C1=O)CCCC3,active: 25.1 µM,
O=C(NNC(=S)Nc1cccc(Cl)c1)c1ccccc1OC(F)F,inactive,
CCOc1cccc(OCCOCCN2CCCC2)c1,inactive,
CCc1ccc(-c2nc(CN3CCC(C(=O)NCCN(CC)c4ccccc4)CC3)c(C)o2)cc1,"inconclusive: 22.4 µM [inhibitor, partial curve]",
Nn1c(SCc2ccc(F)cc2)nnc1-c1ccccn1,"inconclusive: 25.1 µM [inhibitor, single point]",
CC(=O)c1c[nH]c(C(=O)NCC2CCCO2)c1 (centres undefined),"inconclusive: 6.31 µM [inhibitor, single point]",
O=c1cc(COc2ncnc3ccccc23)nc2sccn12,"inconclusive: 25.1 µM [inhibitor, single point]",
c1ccn2cc(-c3ccc4c(c3)OCO4)cc2c1,"inconclusive: 35.5 µM [inhibitor, single point]",
CC(/C=C/c1ccccc1)=N\Nc1nc(-c2ccccc2)cs1,"inconclusive: 39.8 µM [inhibitor, single point]",
CN1C(=O)C(O)(CC(=O)c2cccc(-n3cccc3)c2)c2ccccc21 (centres undefined),"inconclusive: 35.5 µM [inhibitor, single point]",
CCc1ccc(N2CC(C(=O)OCC(=O)NC3CCS(=O)(=O)C3)CC2=O)cc1 (centres undefined),"inconclusive: 5.01 µM [inhibitor, single point]",
COc1ccccc1C1NC(=O)NC(C)=C1C(=O)OC1CCCCC1 (centres undefined),"inconclusive: 3.98 µM [inhibitor, full curve, poor fit]",
COCCNC(=S)N1CCN(C(=O)C(=O)Nc2ccc(C(=O)OC)cc2)CC1,"inconclusive: 5.62 µM [inhibitor, single point]",
